{"source": "patent US11866509B2", "about": "“Humanized antibodies against CEACAM1” (Famewave Ltd., priority 2014, dated 2024)", "test_system": "PD-L1 expression on human melanoma cancer cells (SKMEL28)", "assay": "PD-L1 levels on melanoma cells co-incubated with NK92MI cells, FACS", "format": "cell-based", "conditions": "10 μg/ml CM-24; 24, 48 and 72 hours", "description": "FIG. 7. Treatment with anti-CEACAM1 antibodies increases PD-L1 expression on target cancer cells. NK cells (NK92MI) were incubated with or without CM-24 (10 μg/ml), followed by the addition of human melanoma cells (SKMEL28). The cells were incubated for 24, 48 and 72 hours and PD-L1 levels were measured at each time point by FACS analysis. Mean ratio of anti-PD-L1 compared to an appropriate isotype control for the indicated treatments at the different time points.\nHuman melanoma cancer cells (MALME 3M) were grown in the presence of IFN-ã to induce PD-L1 expression. Human TIL cells (TIL14) were incubated with a monoclonal antibody to human CEACAM1 (CM-24) (0.01 μg/ml, 0.05 μg/ml, 0.1 μg/ml, 0.5 μg/ml), a monoclonal antibody to human PD-1 (clone E12.2H7) or with a combination of both antibodies (0.005, 0.025, 0.05 and 0.25 μg/ml of each antibody) for 30 minutes at 37° C. […] The combination index (CI) was calculated to be 0.15. In the same assay, the level of the cytotoxic protein granzyme B that is secreted upon cytotoxic cell activation was evaluated by commercial granzyme B ELISA Kit. […] The combination index (CI) was calculated to be 0.67. Results represent an average of % cytotoxicity ±SE as determined by classical LDH release assay from triplicate wells per treatment. * P≤0.05 paired T-test compared to a-PD-L1 only. […]", "data": [{"molecule": "CM-24: back-mutated humanized IgG4 anti human CEACAM1 monoclonal antibody; light chain SEQ ID NO: 52, heavy chain SEQ ID NO: 53 (antibody) heavy: QVQLVQSGAEVKKPGASVKVSCKASGYAFTNNLIEWVRQAPGQGLEWIGVINPGSGDTNYNEKFKGRVTMTADKSISTAYMELSRLRSDDTAVYYCARGDYYGGFAVDYWGQGTTVTVSSASTKGPSVFPLAPCSRSTSESTAALGCLVKDYFPEPVTVSWNSGALTSGVHTFPAVLQSSGLYSLSSVVTVPSSSLGTKTYTCNVDHKPSNTKVDKRV[letters of human IgG4 Fc with S228P (EU numbers) left out] light: DIQMTQSPSSLSASVGDRVTITCRTSQDIGNYLNWYQQKPGKAVKLLIYYTSRLHSGVPSRFSGSGSGTDYTLTISSLQPEDIATYFCQQGKSLPRTFGGGTKVEIKRTVAAPSVFIFPPSDEQLKSGTASVVCLLNNFYPREAKVQWKVDNALQSGNSQESVTEQDSKDSTYSLSSTLTLSKADYEKHKVYACEVTHQGLSSPVTKSFNRGEC", "values": [{"measurement": "PD-L1 expression on surviving cancer cells", "value": "increased PD-L1 expression"}]}]}
